Where a name gives a salt, the structure may show the parent alone. ± gives the standard deviation of the averaged measurements. Whole data set: some 3,200 compounds, median “nuclei count (viability) relative to DMSO” near 99, cut for the lowest 2% near 16. The list shows a part of the results.

For this assay, the system named is U2OS. As to the kind of experiment: nuclei count (viability) relative to DMSO (% of DMSO); higher = more viable cells. As to conditions: 10 µM; 24 h. The protocol:
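Primary image-based screen in U2OS cells: compounds at 10 uM for 24 h, then a 1 h o-propargyl-puromycin (OPP) pulse, click labelling, and high-throughput microscopy. Mean cytoplasmic OPP intensity and nuclei count were normalised to DMSO wells within each plate (DMSO = 100) and averaged over triplicate plates.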
`CC(C)NCC(O)COc1cccc2[nH]ccc12` (stereo not given) [Pindolol] registered a nuclei count of 100 ± 18.
Next, `OC(CCN1CCCC1)(c1ccccc1)C1CCCCC1` (stereo not given) [Procyclidine hydrochloride]: 98.1; `C[N+](C)(C)C[C@H](O)CC(=O)[O-]` [L-carnitine (Levocarnitine)]: 108; `O=C(O)c1cc(O)ccc1O` [Gentisic acid]: 103.
Next, `CC(C)C(=O)c1c(C(C)C)nn2ccccc12` [Ibudilast]: 100.6 ± 0.23; `C[N+](C)(C)CC(O)CC(=O)[O-]` (racemic) [DL-Carnitine HCl]: 100.
The same measure for `O=C(/C=C/c1cccnc1)NCCCCC1CCN(C(=O)c2ccccc2)CC1`: 94.8; for `NCCc1ccc(O)c(O)c1` [Dopamine hydrochloride]: 108; for `C[C@H](CS)C(=O)N1CCC[C@H]1C(=O)O` [Captopril]: 93.9 ± 13.
With `C[C@H](CS)C(=O)N1CCC[C@H]1C(=O)O` [Captopril (Capoten)], the nuclei count came to 85.
The same measure for `CN(Cc1cc(Br)cc(Br)c1N)C1CCCCC1` [Bromhexine hydrochloride]: 111.
Next, `Nc1nc(N)c2nc(-c3cccc(O)c3)c(-c3cccc(O)c3)nc2n1`: 104.
Consider `Cn1cnc2c(F)c(Nc3ccc(Br)cc3Cl)c(C(=O)NOCCO)cc21` [AZD6244 (Selumetinib)], for which the nuclei count turned out to be 97.5.
Next, `CC1(C)O[C@@H]2C[C@H]3[C@@H]4C[C@H](F)C5=CC(=O)C=C[C@]5(C)[C@H]4[C@@H](O)C[C@]3(C)[C@]2(C(=O)CO)O1` [Flunisolide]: 100; `Cc1ccc2c(c1)c1c(n2CCc2ccc(C)nc2)CCN(C)C1` [Dimebon (Latrepirdine)]: 95.3.
The same measure for `COc1ccc(CNc2nc(N3CCC[C@H]3CO)ncc2C(=O)NCc2ncccn2)cc1Cl` [Avanafil]: 106; for `CC(=O)OCC(=O)[C@@]1(O)CC[C@H]2[C@@H]3CCC4=CC(=O)C=C[C@]4(C)[C@H]3[C@@H](O)C[C@@]21C` [Prednisolone acetate (Omnipred)]: 112.
Next, `O=C1NC(c2cccc([N+](=O)[O-])c2)=CCN1c1ccccc1O` [Icilin]: 101; `CCCN(CC1CC1)c1nc(C)nc(Nc2c(Cl)cc(Cl)cc2Cl)c1Cl`: 103; `CN1CCN(C(=O)c2cc3cc(Cl)ccc3[nH]2)CC1`: 102.
The compound `N#CC1(c2ccc(NC(=O)c3cccnc3NCc3ccncc3)cc2)CCCC1` [Apatinib (YN968D1)] registered a nuclei count of 102.
The same measure for `CCCNC(=O)N1N=C(c2ccc(N)cc2)c2cc3c(cc2C1C)OCO3` (stereo not given): 93.
The same measure for `Cc1c(Nc2ncccc2C(=O)O)cccc1C(F)(F)F` [Flunixin meglumine]: 97; for `CC[C@H](c1ccc(O)cc1)[C@@H](CC)c1ccc(O)cc1` [Hexestrol (Bibenzyl)]: 101.
Compound `CC[C@H](c1ccc(O)cc1)[C@@H](CC)c1ccc(O)cc1` [Hexestrol] came in with a nuclei count of 102.

Values taken from the supplement of paper PMC8183993.
